The text below walks through data of the supplement of paper PMC3334620.

Over roughly 33,000 sequences, “E-score (-0.5 to 0.5)” has its median near -0.032; the highest 2% begin near 0.36. The list shows a part of the results.

The target in the experiment is T1, Sko1 (UniProt Q02100).
T1 sequence: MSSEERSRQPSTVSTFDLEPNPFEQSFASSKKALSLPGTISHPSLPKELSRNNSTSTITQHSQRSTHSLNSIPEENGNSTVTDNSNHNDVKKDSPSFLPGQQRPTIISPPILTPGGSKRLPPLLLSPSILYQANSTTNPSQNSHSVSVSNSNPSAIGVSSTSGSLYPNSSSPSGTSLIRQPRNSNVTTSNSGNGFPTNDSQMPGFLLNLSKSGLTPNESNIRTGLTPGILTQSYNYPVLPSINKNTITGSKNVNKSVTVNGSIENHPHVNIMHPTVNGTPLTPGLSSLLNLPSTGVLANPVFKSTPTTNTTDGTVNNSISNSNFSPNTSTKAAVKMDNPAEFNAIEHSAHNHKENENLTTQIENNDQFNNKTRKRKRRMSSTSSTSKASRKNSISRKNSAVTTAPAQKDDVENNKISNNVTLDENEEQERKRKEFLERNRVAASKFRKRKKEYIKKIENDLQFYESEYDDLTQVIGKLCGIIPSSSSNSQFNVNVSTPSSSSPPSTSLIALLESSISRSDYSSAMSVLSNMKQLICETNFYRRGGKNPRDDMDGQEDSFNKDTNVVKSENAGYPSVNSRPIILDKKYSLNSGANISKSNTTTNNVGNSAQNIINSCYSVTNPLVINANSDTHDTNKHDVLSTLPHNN
Nature of the experiment: PBM E-score (8-mer binding enrichment) (E-score (-0.5 to 0.5)); higher = stronger / more preferred TF binding; most listed sequences are background and not binding sites. The settings on record: protein concentration: 200 nM; construct: GST-full length. Summed up: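 Yeast transcription factors, full-length or as DNA-binding domains, were expressed with a GST tag using PURExpress in vitro transcription/translation. At about 100-200 nM they were applied to universal all-10-mer Agilent arrays, double-stranded by primer extension on fresh or once-stripped slides. Fluorescent anti-GST detected bound protein, and masliner normalised the scans. E-scores for ungapped eight-base words, pooled with reverse complements, came from the Universal PBM Analysis Suite.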
For the sequence AAATTCGG, the “PBM E-score” value was -0.0392. The same measure for GGTGGACA: -0.241. For AAAATGTA the value was 0.146; for ACGTTCGA, 0.248. The same measure for AGATGAAC: 0.0859; for ATGACCAG: -0.0544; for CAGGATAC: 0.0384. On to TAGGGAAA, for which the “PBM E-score” value was 0.0498. For CTGTGTAA the value was 0.148; for AATCATAT, 0.21.

For the sequence AAGCCTCC, the “PBM E-score” value is -0.294. For GTGACAAC the value was 0.183; for CTTTCATA, 0.257. The same measure for CCGGCGCC: -0.138; for AAAATAGG: 0.0674; for GAGATGAA: -0.00284. Consider GCTAGAGA, for which the “PBM E-score” value was -0.0277. The same measure for ACGGTTCG: -0.214. On to GAAAGACC, for which the “PBM E-score” value was -0.261. For CGACTCTC the value was -0.231.

As for TACACAAA, the “PBM E-score” value is 0.206. As for CCGCCAAA, the “PBM E-score” value is -0.0781.

For AACTACAC, the “PBM E-score” value was determined as 0.231.

Turning to CCACCCAG, the “PBM E-score” value was -0.209. The same measure for AATAGCTA: 0.154. As to GGGGTAGA, the “PBM E-score” value is -0.0788. The same measure for GCTCTTAA: -0.0131; for CCTGTGAA: 0.0504; for GATAGTCA: -0.045.

As for GTATGGAA, the “PBM E-score” value was found to be 0.00841. For ATCTATAA the value was 0.199. For AAAGCATA the value was 0.147; for CATATTCC, -0.0554; for CAGGTACA, -0.0464. GGGCTCCA: the “PBM E-score” value was -0.295. The same measure for ATGTACAC: 0.202; for CCCGGGGC: -0.329. The same measure for CCCTGACG: 0.191. For GAACCATC the value was -0.0679. For CACGCGGA, the “PBM E-score” value is -0.00935. As to AACTCAGT, the “PBM E-score” value was -0.155. GCGGATAA: the “PBM E-score” value is -0.105.

Regarding GACCAAAA, the “PBM E-score” value was found to be 0.112. The same measure for GGATTCAC: -0.215; for ATTGGCTG: -0.05.

Take AGGCCTCC: the “PBM E-score” value was -0.309. With CGGCTCAA, the “PBM E-score” value was -0.146. The same measure for TCACCTCA: 0.236; for TATTGTAA: 0.0735; for AGCCCTAG: -0.134. For the sequence GCTAACCA, the “PBM E-score” value was -0.251. The same measure for CGTGATGA: 0.36; for ATGCTAAT: 0.209; for CATTAAAA: 0.16.

Turning to CGCCGGGC, the “PBM E-score” value is -0.215. The same measure for GGAGGCCC: -0.241; for AAGTCGCT: -0.133; for GAGCTTAC: -0.0218. The same measure for CTTCGAGC: -0.0643; for AAAATCTC: -0.0523; for GCCAAGAC: -0.0143.

For CTGACCAC, the “PBM E-score” value is -0.151. The same measure for ATTCGCCA: 0.0648; for CCAAACTC: -0.0112; for AACGCTCG: 0.139.

In the case of CGACCTAC, the “PBM E-score” value was -0.0588. The same measure for ACCCGCGC: 0.0645.

Turning to GATGGGGC, the “PBM E-score” value was -0.179. The same measure for GGCCTACA: -0.116. The same measure for AAAATCGC: 0.0693; for CGGGGAAC: -0.209; for CCGTACAG: -0.22. Regarding GTTACTAA, the “PBM E-score” value worked out at 0.263. The same measure for CTGTTCGC: -0.00955; for CTGGGGTA: -0.251. For GCCCACCC the value was 0.0115; for ATACCGTA, 0.162. For CTTAGATA the value was 0.141. Take GTCGGGTA: the “PBM E-score” value is -0.0683. GGGTCTAA: the “PBM E-score” value was -0.21. The same measure for AATCGCCT: -0.0272.

For ATGGCCAT, the “PBM E-score” value was -0.253. For GTTGTGAA the value was 0.208. For ACGGGAAT the value was -0.0502. The same measure for CTATTGTC: -0.0945. In the case of TCCTCTCA, the “PBM E-score” value was -0.105.
